This is one part of the list.
Experiments:
Assay in all cases: glycan array binding signal (z-score within array); higher = stronger binding
Conditions in all cases: glycan notation: IUPAC condensed, linker removed
[1] = target: GlcNAc(b1-3)Gal(b1-4)GlcNAc(b1-3)Gal(b1-4)GlcNAc(b1-3)GalNAc
Procedure, shortened: (§1)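 The binding signal is a Z-score computed within each array. Data were drawn from 3228 arrays in the Consortium for Functional Glycomics database, restricted to those with a known protein sequence. Scores were averaged over arrays of the same protein sequence at different concentrations or buffers, and over linkers, and negative values can be taken as non-binding.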

[2] = target: GlcNAc(b1-3)Gal(b1-4)GlcNAc(b1-3)GalNAc
Procedure, shortened: as §1

[3] = target: GlcNAc(b1-3)Gal(b1-4)GlcNAc(b1-3)[GlcNAc(b1-3)Gal(b1-4)GlcNAc(b1-3)]GalNAc
Procedure, shortened: as §1

[4] = target: GlcNAc(b1-3)Gal(b1-4)GlcNAc(b1-6)[Gal(b1-3)]GalNAc
Procedure, shortened: as §1

[5] = target: GlcNAc(b1-3)Gal(b1-4)GlcNAc(b1-6)[GlcNAc(b1-3)Gal(b1-3)]GalNAc
Procedure, shortened: as §1

[6] = target: GlcNAc(b1-3)Gal(b1-4)GlcNAc(b1-6)[GlcNAc(b1-3)]Gal(b1-4)GlcNAc
Procedure, shortened: as §1

[7] = target: GlcNAc(b1-3)GalNAc
Procedure, shortened: as §1

[8] = target: GlcNAc(b1-3)Man
Procedure, shortened: as §1

[9] = target: GlcNAc(b1-3)[GlcNAc(b1-4)][GlcNAc(b1-6)]GlcNAc
Procedure, shortened: as §1

[10] = target: GlcNAc(b1-3)[GlcNAc(b1-6)]Gal(b1-4)GlcNAc
Procedure, shortened: as §1

[11] = target: GlcNAc(b1-3)[GlcNAc(b1-6)]GalNAc
Procedure, shortened: as §1

[12] = target: GlcNAc(b1-4)Gal(b1-4)GlcNAc
Procedure, shortened: as §1

[13] = target: GlcNAc(b1-4)GlcNAc
Procedure, shortened: as §1

[14] = target: GlcNAc(b1-4)GlcNAc(b1-4)GlcNAc
Procedure, shortened: as §1

[15] = target: GlcNAc(b1-4)GlcNAc(b1-4)GlcNAc(b1-4)GlcNAc(b1-4)GlcNAc
Procedure, shortened: as §1

[16] = target: GlcNAc(b1-4)GlcNAc(b1-4)GlcNAc(b1-4)GlcNAc(b1-4)GlcNAc(b1-4)GlcNAc
Procedure, shortened: as §1

[17] = target: GlcNAc(b1-4)[GlcNAc(b1-6)]GalNAc
Procedure, shortened: as §1

[18] = target: GlcNAc(b1-6)Gal(b1-4)GlcNAc
Procedure, shortened: as §1

[19] = target: GlcNAc(b1-6)GalNAc
Procedure, shortened: as §1

[20] = target: GlcNAc6S(b1-3)Gal(b1-4)GlcNAc
Procedure, shortened: as §1

[21] = target: Kdn(a2-3)Gal(b1-3)GalNAc
Procedure, shortened: as §1

[22] = target: Kdn(a2-3)Gal(b1-3)GlcNAc
Procedure, shortened: as §1

[23] = target: Kdn(a2-3)Gal(b1-4)Glc
Procedure, shortened: as §1

[24] = target: Kdn(a2-3)Gal(b1-4)GlcNAc
Procedure, shortened: as §1

[25] = target: Kdn(a2-3)Gal(b1-4)[Fuc(a1-3)]GlcNAc
Procedure, shortened: as §1

[26] = target: Kdn(a2-6)Gal(b1-4)GlcNAc
Procedure, shortened: as §1

[27] = target: Man(a1-2)Man(a1-2)Man(a1-3)Man
Procedure, shortened: as §1

[28] = target: Man(a1-2)Man(a1-2)Man(a1-6)[Man(a1-3)]Man
Procedure, shortened: as §1

[29] = target: Man(a1-2)Man(a1-3)Man
Procedure, shortened: as §1

[30] = target: Man(a1-2)Man(a1-3)[Man(a1-2)Man(a1-6)]Man
Procedure, shortened: as §1

[31] = target: Man(a1-2)Man(a1-3)[Man(a1-2)Man(a1-6)]Man(a1-6)[Man(a1-2)Man(a1-2)Man(a1-3)]Man
Procedure, shortened: as §1

[32] = target: Man(a1-2)Man(a1-3)[Man(a1-2)Man(a1-6)]Man(a1-6)[Man(a1-2)Man(a1-2)Man(a1-3)]Man(b1-4)GlcNAc(b1-4)GlcNAc
Procedure, shortened: as §1

[33] = target: Man(a1-2)Man(a1-3)[Man(a1-6)]Man(a1-6)[Man(a1-2)Man(a1-3)]Man(b1-4)GlcNAc(b1-4)GlcNAc
Procedure, shortened: as §1

[34] = target: Man(a1-2)Man(a1-6)[Man(a1-3)]Man(a1-6)[Man(a1-2)Man(a1-2)Man(a1-3)]Man
Procedure, shortened: as §1

[35] = target: Man(a1-2)Man(a1-6)[Man(a1-3)]Man(a1-6)[Man(a1-2)Man(a1-2)Man(a1-3)]Man(b1-4)GlcNAc(b1-4)GlcNAc
Procedure, shortened: as §1

[36] = target: Man(a1-3)[Man(a1-6)]Man
Procedure, shortened: as §1

[37] = target: Man(a1-3)[Man(a1-6)]Man(a1-6)[Man(a1-2)Man(a1-3)]Man(b1-4)GlcNAc(b1-4)GlcNAc
Procedure, shortened: as §1

[38] = target: Man(a1-3)[Man(a1-6)]Man(a1-6)[Man(a1-3)]Man
Procedure, shortened: as §1

[39] = target: Man(a1-3)[Man(a1-6)]Man(a1-6)[Man(a1-3)]Man(b1-4)GlcNAc(b1-4)GlcNAc
Procedure, shortened: as §1

[40] = target: Man(a1-3)[Man(a1-6)]Man(b1-4)GlcNAc(b1-4)GlcNAc
Procedure, shortened: as §1

[41] = target: Man(a1-3)[Man(a1-6)]Man(b1-4)GlcNAc(b1-4)[Fuc(a1-6)]GlcNAc
Procedure, shortened: as §1

[42] = target: Man(a1-6)Man
Procedure, shortened: as §1

[43] = target: Man(b1-4)GlcNAc
Procedure, shortened: as §1

[44] = target: MurNAc(b1-4)GlcNAc
Procedure, shortened: as §1

[45] = target: Neu5Ac(a2-3)Gal
Procedure, shortened: as §1

B1: FimD (Bordetella pertussis) (protein)
chain: MPARVISFCGAALAVWAGLAVQPAMAVDPPVDCGRALGLHFWSSASLISDQTPDGTLIGKPVVGRSLLSKSCKVPDDIKEDLSDNHDGEPVDIVLELGSNYKIRPQSYGHPGIVVDLPFGSTEETGIAIYIDFGSSPMQKVGERQWLYPQKGEVLFDVLTINGDNAEVRYQAIKVGPLKRPRKLVLSQFPNLFTYKWVFMRGTSQERVLAQGTIDTDVATSTIDLKTCRYTSQTVSLPIIQRSALTGVGTTLGMTDFQMPFWCYGWPKVSVYMSATKTQTGVDGVALPATGQAAGMASGVGVQLINGKTQQPVKLGLQGKIALPEAQQTESATFSLPMKAQYYQTSTSTSAGKLSVTYAVTLNYD
[1]
  glycan array binding signal (z-score): -0.229
[2]
  glycan array binding signal (z-score): -0.321
[3]
  glycan array binding signal (z-score): 0.187
[4]
  glycan array binding signal (z-score): 0.453
[5]
  glycan array binding signal (z-score): -0.162
[6]
  glycan array binding signal (z-score): -0.377
[7]
  glycan array binding signal (z-score): -0.123
[8]
  glycan array binding signal (z-score): -0.421
[9]
  glycan array binding signal (z-score): 0.179
[10]
  glycan array binding signal (z-score): -0.317
[11]
  glycan array binding signal (z-score): -0.074
[12]
  glycan array binding signal (z-score): -0.165
[13]
  glycan array binding signal (z-score): -0.233
[14]
  glycan array binding signal (z-score): -0.602
[15]
  glycan array binding signal (z-score): -0.448
[16]
  glycan array binding signal (z-score): -0.178
[17]
  glycan array binding signal (z-score): -0.451
[18]
  glycan array binding signal (z-score): 0.234
[19]
  glycan array binding signal (z-score): -0.117
[20]
  glycan array binding signal (z-score): -0.228
[21]
  glycan array binding signal (z-score): 0.281
[22]
  glycan array binding signal (z-score): -0.261
[23]
  glycan array binding signal (z-score): -0.328
[24]
  glycan array binding signal (z-score): -0.463
[25]
  glycan array binding signal (z-score): -0.279
[26]
  glycan array binding signal (z-score): 0.054
[27]
  glycan array binding signal (z-score): -0.246
[28]
  glycan array binding signal (z-score): -0.092
[29]
  glycan array binding signal (z-score): 0.118
[30]
  glycan array binding signal (z-score): -0.493
[31]
  glycan array binding signal (z-score): -0.23
[32]
  glycan array binding signal (z-score): -0.08
[33]
  glycan array binding signal (z-score): -0.263
[34]
  glycan array binding signal (z-score): -0.687
[35]
  glycan array binding signal (z-score): -0.313
[36]
  glycan array binding signal (z-score): -0.169
[37]
  glycan array binding signal (z-score): -0.235
[38]
  glycan array binding signal (z-score): 0.194
[39]
  glycan array binding signal (z-score): -0.464
[40]
  glycan array binding signal (z-score): -0.351
[41]
  glycan array binding signal (z-score): -0.311
[42]
  glycan array binding signal (z-score): -0.037
[43]
  glycan array binding signal (z-score): 0.06
[44]
  glycan array binding signal (z-score): -0.13
[45]
  glycan array binding signal (z-score): 0.164

Source: the supplement of paper PMC8728848
